Article PMC5027283
These are yes or no findings as the source states them, for the method shown. For some of these results: In cells and extracts the contact can be indirect. Some results given as binding are weak or reduced against the parent protein; the word gives no strength. For some of these results: Where a sequence is shown, tags or fusion partners need not be part of it. One block for each molecule: values may come before it.

The chains behind the UniProt entries cited, without tags or fusion partners. Where a name states a change or a piece, a line headed by the entry shows the natural chain unless it says otherwise. Residues count along the entry.
UniProt O94953: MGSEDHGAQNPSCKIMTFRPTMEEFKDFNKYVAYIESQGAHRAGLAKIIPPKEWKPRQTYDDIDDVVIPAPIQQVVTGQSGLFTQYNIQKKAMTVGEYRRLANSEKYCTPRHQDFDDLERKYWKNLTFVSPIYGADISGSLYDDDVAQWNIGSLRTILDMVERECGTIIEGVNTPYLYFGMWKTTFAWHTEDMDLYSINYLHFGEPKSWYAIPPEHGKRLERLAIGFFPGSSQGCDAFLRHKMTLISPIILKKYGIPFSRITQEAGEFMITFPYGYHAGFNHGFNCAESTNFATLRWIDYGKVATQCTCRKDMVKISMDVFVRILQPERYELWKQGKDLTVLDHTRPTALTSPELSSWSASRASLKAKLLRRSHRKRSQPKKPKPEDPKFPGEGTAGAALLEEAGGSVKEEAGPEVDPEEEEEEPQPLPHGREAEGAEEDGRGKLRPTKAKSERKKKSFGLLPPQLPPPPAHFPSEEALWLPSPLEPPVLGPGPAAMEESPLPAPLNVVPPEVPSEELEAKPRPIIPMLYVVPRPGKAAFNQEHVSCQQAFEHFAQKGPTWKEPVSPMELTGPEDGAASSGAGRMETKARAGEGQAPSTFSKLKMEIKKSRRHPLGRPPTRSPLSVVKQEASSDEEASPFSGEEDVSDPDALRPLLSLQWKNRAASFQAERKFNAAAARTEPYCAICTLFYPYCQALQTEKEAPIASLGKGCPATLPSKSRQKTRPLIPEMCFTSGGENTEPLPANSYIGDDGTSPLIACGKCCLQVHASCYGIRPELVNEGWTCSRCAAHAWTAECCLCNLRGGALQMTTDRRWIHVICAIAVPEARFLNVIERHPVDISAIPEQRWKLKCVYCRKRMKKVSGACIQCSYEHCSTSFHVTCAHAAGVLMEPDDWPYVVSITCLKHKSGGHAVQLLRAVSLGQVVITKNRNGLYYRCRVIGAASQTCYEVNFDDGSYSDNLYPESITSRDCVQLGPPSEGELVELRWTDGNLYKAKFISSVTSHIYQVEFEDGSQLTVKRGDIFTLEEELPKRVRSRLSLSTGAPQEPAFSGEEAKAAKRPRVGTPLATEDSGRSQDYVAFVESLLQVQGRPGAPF
UniProt Q8TB45: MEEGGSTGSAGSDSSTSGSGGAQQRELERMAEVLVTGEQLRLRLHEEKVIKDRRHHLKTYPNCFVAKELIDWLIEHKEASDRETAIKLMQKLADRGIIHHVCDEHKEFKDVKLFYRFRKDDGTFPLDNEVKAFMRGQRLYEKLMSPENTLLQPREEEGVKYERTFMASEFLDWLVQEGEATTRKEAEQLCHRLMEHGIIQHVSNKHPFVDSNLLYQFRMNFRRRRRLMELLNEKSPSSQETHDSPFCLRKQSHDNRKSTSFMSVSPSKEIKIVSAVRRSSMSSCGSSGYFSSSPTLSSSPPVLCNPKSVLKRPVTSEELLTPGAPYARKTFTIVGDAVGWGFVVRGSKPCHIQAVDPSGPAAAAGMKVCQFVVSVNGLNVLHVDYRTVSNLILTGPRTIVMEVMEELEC
Flag-DEPTOR PDZ domain: residues 330-407 of Q8TB45
UniProt Q8N122: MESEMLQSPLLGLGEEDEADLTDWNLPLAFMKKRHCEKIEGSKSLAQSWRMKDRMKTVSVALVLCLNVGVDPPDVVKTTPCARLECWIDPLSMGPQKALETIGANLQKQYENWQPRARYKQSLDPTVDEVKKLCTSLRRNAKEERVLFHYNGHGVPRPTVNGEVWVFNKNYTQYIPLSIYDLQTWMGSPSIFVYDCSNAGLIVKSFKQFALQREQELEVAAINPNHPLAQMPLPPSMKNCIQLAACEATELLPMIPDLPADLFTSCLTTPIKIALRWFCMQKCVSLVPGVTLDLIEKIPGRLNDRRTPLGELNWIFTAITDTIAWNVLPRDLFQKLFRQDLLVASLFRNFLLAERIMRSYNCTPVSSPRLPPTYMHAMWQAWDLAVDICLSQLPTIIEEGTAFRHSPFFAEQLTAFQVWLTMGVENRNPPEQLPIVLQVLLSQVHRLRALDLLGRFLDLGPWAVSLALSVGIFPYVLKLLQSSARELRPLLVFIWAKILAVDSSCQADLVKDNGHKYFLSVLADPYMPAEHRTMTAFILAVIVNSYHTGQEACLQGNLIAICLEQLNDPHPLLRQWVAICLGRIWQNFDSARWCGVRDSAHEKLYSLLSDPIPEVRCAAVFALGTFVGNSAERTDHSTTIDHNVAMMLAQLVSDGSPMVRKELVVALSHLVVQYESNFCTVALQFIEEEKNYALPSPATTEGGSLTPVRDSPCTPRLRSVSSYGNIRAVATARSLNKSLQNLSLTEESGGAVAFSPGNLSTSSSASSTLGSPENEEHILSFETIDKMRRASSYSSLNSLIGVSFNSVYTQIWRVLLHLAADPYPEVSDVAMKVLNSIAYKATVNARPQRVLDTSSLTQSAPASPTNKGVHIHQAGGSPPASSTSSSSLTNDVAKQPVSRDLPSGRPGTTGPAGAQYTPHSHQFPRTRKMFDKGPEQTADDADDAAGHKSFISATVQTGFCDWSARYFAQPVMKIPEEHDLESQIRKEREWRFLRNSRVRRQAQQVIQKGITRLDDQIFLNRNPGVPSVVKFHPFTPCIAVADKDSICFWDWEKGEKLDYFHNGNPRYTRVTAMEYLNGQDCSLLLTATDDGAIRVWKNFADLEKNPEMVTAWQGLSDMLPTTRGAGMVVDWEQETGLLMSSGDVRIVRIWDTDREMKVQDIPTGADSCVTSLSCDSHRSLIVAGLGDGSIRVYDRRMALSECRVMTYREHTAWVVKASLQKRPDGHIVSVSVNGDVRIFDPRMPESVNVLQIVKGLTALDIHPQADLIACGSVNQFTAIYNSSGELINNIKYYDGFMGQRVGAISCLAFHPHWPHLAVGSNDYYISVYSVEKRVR

Columns and labels:
[1] = biological target: T1, Flag-KDM4A (UniProt O75164); test: co-IP; anti-Flag M2 agarose beads, 2 h at 4 °C, lysates of transfected cells (293T where stated) in 0.3% CHAPS, 50 mM Hepes, 120 mM NaCl, 2 mM EDTA, sonicated; washed with lysis buffer containing 150 mM NaCl and with TBS
T1 sequence: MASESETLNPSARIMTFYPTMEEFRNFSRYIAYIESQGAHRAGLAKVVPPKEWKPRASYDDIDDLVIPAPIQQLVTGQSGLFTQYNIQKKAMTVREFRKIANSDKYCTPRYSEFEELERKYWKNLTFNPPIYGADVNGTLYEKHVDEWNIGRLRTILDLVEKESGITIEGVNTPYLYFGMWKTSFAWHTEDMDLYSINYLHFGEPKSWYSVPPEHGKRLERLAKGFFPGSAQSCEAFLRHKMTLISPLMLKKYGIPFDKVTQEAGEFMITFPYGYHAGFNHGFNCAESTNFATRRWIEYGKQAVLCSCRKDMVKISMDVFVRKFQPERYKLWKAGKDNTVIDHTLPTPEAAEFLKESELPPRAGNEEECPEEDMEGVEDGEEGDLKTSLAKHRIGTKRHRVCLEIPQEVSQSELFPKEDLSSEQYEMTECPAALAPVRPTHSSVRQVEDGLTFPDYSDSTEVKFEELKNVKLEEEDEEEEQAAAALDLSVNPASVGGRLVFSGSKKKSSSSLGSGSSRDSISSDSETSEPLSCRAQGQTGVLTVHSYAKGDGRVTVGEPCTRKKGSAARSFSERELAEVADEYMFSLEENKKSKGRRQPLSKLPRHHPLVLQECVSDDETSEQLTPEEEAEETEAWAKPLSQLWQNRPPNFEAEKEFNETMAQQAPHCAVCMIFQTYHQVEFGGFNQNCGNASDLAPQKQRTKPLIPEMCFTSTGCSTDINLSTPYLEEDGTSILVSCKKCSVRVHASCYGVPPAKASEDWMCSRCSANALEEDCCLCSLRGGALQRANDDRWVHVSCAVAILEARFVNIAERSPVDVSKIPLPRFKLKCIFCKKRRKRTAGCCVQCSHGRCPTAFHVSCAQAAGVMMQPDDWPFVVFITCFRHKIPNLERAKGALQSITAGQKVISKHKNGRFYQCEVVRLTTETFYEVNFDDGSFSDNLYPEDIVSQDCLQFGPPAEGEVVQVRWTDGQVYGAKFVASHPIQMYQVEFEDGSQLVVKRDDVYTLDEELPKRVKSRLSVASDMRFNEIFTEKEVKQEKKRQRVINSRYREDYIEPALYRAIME

[2] = biological target: T2, KDM4A (endogenous) (human (endogenous in 293E, HeLa, NHA-hTERT)) (UniProt O75164); test: co-IP; endogenous proteins; about 2 x 10^8 cells (NHAs, HeLa or 293E) in lysis buffer A with 0.5% Triton; 12 μg KDM4A or KDM4B antibody overnight at 4 °C, M-280 streptavidin-coated dynabeads 1 h; NO66 antibody as negative control
T2 sequence: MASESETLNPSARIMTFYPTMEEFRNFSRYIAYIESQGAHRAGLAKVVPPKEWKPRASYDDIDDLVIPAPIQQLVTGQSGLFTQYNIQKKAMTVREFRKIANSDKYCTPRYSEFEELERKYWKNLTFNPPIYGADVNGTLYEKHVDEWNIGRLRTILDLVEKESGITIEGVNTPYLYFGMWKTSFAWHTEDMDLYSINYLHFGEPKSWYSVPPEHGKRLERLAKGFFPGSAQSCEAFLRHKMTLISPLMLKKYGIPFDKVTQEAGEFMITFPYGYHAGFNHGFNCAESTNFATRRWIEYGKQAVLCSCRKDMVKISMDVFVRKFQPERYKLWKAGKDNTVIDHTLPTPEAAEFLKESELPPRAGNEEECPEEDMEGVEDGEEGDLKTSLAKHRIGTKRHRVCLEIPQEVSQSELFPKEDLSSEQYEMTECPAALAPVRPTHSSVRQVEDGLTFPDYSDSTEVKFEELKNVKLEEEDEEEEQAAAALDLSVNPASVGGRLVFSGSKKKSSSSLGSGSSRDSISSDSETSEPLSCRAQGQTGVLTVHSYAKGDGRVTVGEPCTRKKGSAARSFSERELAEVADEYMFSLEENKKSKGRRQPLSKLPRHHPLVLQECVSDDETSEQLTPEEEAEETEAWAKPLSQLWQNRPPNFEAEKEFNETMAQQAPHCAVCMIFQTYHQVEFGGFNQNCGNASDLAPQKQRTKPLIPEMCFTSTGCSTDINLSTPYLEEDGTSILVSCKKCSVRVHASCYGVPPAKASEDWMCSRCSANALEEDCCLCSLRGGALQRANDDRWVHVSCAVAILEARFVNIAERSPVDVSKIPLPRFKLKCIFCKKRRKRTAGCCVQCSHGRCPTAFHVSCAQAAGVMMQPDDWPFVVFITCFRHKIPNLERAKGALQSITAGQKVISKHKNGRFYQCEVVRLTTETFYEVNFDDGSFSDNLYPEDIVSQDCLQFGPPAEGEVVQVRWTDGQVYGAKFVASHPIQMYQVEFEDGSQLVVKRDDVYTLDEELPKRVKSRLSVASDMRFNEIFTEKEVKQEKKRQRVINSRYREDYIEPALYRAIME

[3] = biological target: KDM4B (endogenous) (human (endogenous in NHAs, HeLa or 293E)) (UniProt O94953); test: as above
[4] = biological target: GST-DEPTOR (UniProt Q8TB45); test: condition: 500 ng of His-KDM4A (aa 563–1064) with 1 μg of GST-DEPTOR; pull-down; 1 μg GST-DEPTOR on glutathione beads with 500 ng His-KDM4A fragment, 2 h at 4 °C, 25 mM HEPES pH 7.5, 250 mM KCl, 0.1% NP-40, 10% glycerol, 100 μg/ml BSA; both purified
[5] = biological target: Flag-DEPTOR (full length) (UniProt Q8TB45); test: co-IP; anti-Flag M2 agarose beads, as the other Flag immunoprecipitations (0.3% CHAPS, 50 mM Hepes, 120 mM NaCl, 2 mM EDTA) but samples not sonicated (Fig. 3f)
[6] = biological target: Flag-DEPTOR PDZ domain (UniProt Q8TB45); test: as above
[7] = biological target: Flag-DEPTOR (full length) (UniProt Q8TB45); test: co-IP; anti-Flag M2 agarose beads, 2 h at 4 °C, lysates of transfected cells (293T where stated) in 0.3% CHAPS, 50 mM Hepes, 120 mM NaCl, 2 mM EDTA, sonicated; washed with lysis buffer containing 150 mM NaCl and with TBS
[8] = biological target: GST-DEPTOR (UniProt Q8TB45); test: condition: 500 ng of His-KDM4A (aa 1–562) with 1 μg of GST-DEPTOR; pull-down; 1 μg GST-DEPTOR on glutathione beads with 500 ng His-KDM4A fragment, 2 h at 4 °C, 25 mM HEPES pH 7.5, 250 mM KCl, 0.1% NP-40, 10% glycerol, 100 μg/ml BSA; both purified

Molecule: HA-DEPTOR (from UniProt Q8TB45 1-409)
binding [1]: binds

B1: His-KDM4A(aa 563-1064) (domain or fragment, UniProt O75164 563-1064)
chain: KKGSAARSFSERELAEVADEYMFSLEENKKSKGRRQPLSKLPRHHPLVLQECVSDDETSEQLTPEEEAEETEAWAKPLSQLWQNRPPNFEAEKEFNETMAQQAPHCAVCMIFQTYHQVEFGGFNQNCGNASDLAPQKQRTKPLIPEMCFTSTGCSTDINLSTPYLEEDGTSILVSCKKCSVRVHASCYGVPPAKASEDWMCSRCSANALEEDCCLCSLRGGALQRANDDRWVHVSCAVAILEARFVNIAERSPVDVSKIPLPRFKLKCIFCKKRRKRTAGCCVQCSHGRCPTAFHVSCAQAAGVMMQPDDWPFVVFITCFRHKIPNLERAKGALQSITAGQKVISKHKNGRFYQCEVVRLTTETFYEVNFDDGSFSDNLYPEDIVSQDCLQFGPPAEGEVVQVRWTDGQVYGAKFVASHPIQMYQVEFEDGSQLVVKRDDVYTLDEELPKRVKSRLSVASDMRFNEIFTEKEVKQEKKRQRVINSRYREDYIEPALYRAIME
binding [4]: no binding

B2: KDM4A (endogenous) (enzyme, UniProt O75164 1-1064)
chain: MASESETLNPSARIMTFYPTMEEFRNFSRYIAYIESQGAHRAGLAKVVPPKEWKPRASYDDIDDLVIPAPIQQLVTGQSGLFTQYNIQKKAMTVREFRKIANSDKYCTPRYSEFEELERKYWKNLTFNPPIYGADVNGTLYEKHVDEWNIGRLRTILDLVEKESGITIEGVNTPYLYFGMWKTSFAWHTEDMDLYSINYLHFGEPKSWYSVPPEHGKRLERLAKGFFPGSAQSCEAFLRHKMTLISPLMLKKYGIPFDKVTQEAGEFMITFPYGYHAGFNHGFNCAESTNFATRRWIEYGKQAVLCSCRKDMVKISMDVFVRKFQPERYKLWKAGKDNTVIDHTLPTPEAAEFLKESELPPRAGNEEECPEEDMEGVEDGEEGDLKTSLAKHRIGTKRHRVCLEIPQEVSQSELFPKEDLSSEQYEMTECPAALAPVRPTHSSVRQVEDGLTFPDYSDSTEVKFEELKNVKLEEEDEEEEQAAAALDLSVNPASVGGRLVFSGSKKKSSSSLGSGSSRDSISSDSETSEPLSCRAQGQTGVLTVHSYAKGDGRVTVGEPCTRKKGSAARSFSERELAEVADEYMFSLEENKKSKGRRQPLSKLPRHHPLVLQECVSDDETSEQLTPEEEAEETEAWAKPLSQLWQNRPPNFEAEKEFNETMAQQAPHCAVCMIFQTYHQVEFGGFNQNCGNASDLAPQKQRTKPLIPEMCFTSTGCSTDINLSTPYLEEDGTSILVSCKKCSVRVHASCYGVPPAKASEDWMCSRCSANALEEDCCLCSLRGGALQRANDDRWVHVSCAVAILEARFVNIAERSPVDVSKIPLPRFKLKCIFCKKRRKRTAGCCVQCSHGRCPTAFHVSCAQAAGVMMQPDDWPFVVFITCFRHKIPNLERAKGALQSITAGQKVISKHKNGRFYQCEVVRLTTETFYEVNFDDGSFSDNLYPEDIVSQDCLQFGPPAEGEVVQVRWTDGQVYGAKFVASHPIQMYQVEFEDGSQLVVKRDDVYTLDEELPKRVKSRLSVASDMRFNEIFTEKEVKQEKKRQRVINSRYREDYIEPALYRAIME
binding [5]: binds
binding [6]: binds
binding [7]: binds

Further lines, results first:

binding [1]: binds
binding [2]: binds
binding [3]: binds
Molecule: DEPTOR (endogenous) (from UniProt Q8TB45 1-409)

binding [1]: binds weakly
Molecule: Raptor (endogenous) (from UniProt Q8N122 1-1335)

binding [8]: no binding
B3: His-KDM4A(aa 1-562) (domain or fragment, UniProt O75164 1-562)
chain: MASESETLNPSARIMTFYPTMEEFRNFSRYIAYIESQGAHRAGLAKVVPPKEWKPRASYDDIDDLVIPAPIQQLVTGQSGLFTQYNIQKKAMTVREFRKIANSDKYCTPRYSEFEELERKYWKNLTFNPPIYGADVNGTLYEKHVDEWNIGRLRTILDLVEKESGITIEGVNTPYLYFGMWKTSFAWHTEDMDLYSINYLHFGEPKSWYSVPPEHGKRLERLAKGFFPGSAQSCEAFLRHKMTLISPLMLKKYGIPFDKVTQEAGEFMITFPYGYHAGFNHGFNCAESTNFATRRWIEYGKQAVLCSCRKDMVKISMDVFVRKFQPERYKLWKAGKDNTVIDHTLPTPEAAEFLKESELPPRAGNEEECPEEDMEGVEDGEEGDLKTSLAKHRIGTKRHRVCLEIPQEVSQSELFPKEDLSSEQYEMTECPAALAPVRPTHSSVRQVEDGLTFPDYSDSTEVKFEELKNVKLEEEDEEEEQAAAALDLSVNPASVGGRLVFSGSKKKSSSSLGSGSSRDSISSDSETSEPLSCRAQGQTGVLTVHSYAKGDGRVTVGEPCTR
